# From article PMC4336329 (PLoS ONE, 2015)
# Out of some 310,000 compounds screened, about 2,200 (0.71%) showed an effect of 50% or more. Effects have a minus sign here. Some of the results follow.
# Biological target: human ether-à-go-go-related gene (hERG) potassium channel (human, UniProt Q12809)
# Assay: primary screen, population patch clamp on CHO cells stably expressing hERG
# Sequence of human ether-à-go-go-related gene (hERG) potassium channel (Q12809 whole entry, looked up): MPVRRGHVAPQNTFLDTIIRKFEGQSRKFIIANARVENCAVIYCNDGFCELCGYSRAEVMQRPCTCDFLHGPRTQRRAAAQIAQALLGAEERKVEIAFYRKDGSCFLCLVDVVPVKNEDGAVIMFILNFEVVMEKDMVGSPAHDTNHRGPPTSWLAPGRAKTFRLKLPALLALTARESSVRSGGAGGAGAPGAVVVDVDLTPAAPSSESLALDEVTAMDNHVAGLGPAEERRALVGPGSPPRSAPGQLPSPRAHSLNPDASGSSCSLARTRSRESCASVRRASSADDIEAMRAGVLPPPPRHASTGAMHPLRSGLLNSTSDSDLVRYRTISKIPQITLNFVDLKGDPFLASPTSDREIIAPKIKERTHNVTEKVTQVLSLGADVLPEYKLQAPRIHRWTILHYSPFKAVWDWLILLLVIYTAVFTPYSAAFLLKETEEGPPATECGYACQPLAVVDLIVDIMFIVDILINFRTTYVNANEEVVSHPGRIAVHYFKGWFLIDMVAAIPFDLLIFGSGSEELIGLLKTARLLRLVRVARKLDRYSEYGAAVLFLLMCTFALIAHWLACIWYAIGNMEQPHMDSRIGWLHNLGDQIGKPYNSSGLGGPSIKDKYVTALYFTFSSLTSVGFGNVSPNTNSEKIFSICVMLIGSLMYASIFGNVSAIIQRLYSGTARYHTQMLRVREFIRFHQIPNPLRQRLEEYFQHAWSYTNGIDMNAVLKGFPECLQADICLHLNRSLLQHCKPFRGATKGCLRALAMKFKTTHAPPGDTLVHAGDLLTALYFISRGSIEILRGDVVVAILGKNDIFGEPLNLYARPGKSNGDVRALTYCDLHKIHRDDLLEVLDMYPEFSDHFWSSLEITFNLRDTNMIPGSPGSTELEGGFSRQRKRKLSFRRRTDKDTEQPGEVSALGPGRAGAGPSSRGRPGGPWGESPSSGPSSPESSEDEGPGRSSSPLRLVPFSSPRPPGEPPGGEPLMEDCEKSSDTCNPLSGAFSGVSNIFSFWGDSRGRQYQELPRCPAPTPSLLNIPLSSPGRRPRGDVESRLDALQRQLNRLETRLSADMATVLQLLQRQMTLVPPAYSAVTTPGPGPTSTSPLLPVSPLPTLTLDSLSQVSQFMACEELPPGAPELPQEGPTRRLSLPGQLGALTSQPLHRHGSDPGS
row,SMILES,"hERG current change (%, negative = inhibition) at 1uM"
1,O=C(c1cccc(F)c1)N1CCN(C(=O)C(c2ccccc2)c2ccccc2)CC1,-11.4%
2,C=CCOC(=O)C1=C[C@@H](c2ccc(C(F)(F)F)cc2)[C@H](CCCO)[C@@H](OCC)O1,-6.23%
3,CCC(C)N(C(=O)C(F)(F)F)C(C(=O)NC1CCCCC1)c1ccncc1 (stereo not drawn),1.64%
4,O=C1CCC(CCC(=O)N2CCCC(C(=O)c3ccc4c5c(cccc35)CC4)C2)=NN1 (stereo not drawn),-26.5%
5,Cc1ccccc1C(=O)NNC(=O)CCCCC(=O)NNC(=O)c1ccccc1C,10.8%
6,COC(=O)CSc1cc(C)nc2ccc(OC)cc12,-4.96%
7,CCOc1nsc(OCC)n1,1.94%
8,CCc1nnc(NC(=O)CSc2nnc(-c3ccoc3C)n2CC(C)C)s1,7.66%
9,CN(CC(=O)NC1CCN(Cc2ccccc2)CC1)S(=O)(=O)c1ccc(Cl)cc1,1.3%
10,CC(=O)c1cccc(NC(=O)CSc2ccc(-c3ccccn3)nn2)c1,3.73%
11,O=C(Nc1ccc(Cl)cc1C(=O)N1CCCC1)c1cccc([N+](=O)[O-])c1,2.77%
12,COc1ccc(NC(=O)C2CCCN(S(=O)(=O)c3c(C)[nH]c(=O)[nH]c3=O)C2)cc1Cl (stereo not drawn),11.3%
13,NC12CC3CC(C1)CC(CO)(C3)O2,13.6%
14,CSCC[C@H](NC(=O)c1cc([N+](=O)[O-])ccc1Cl)c1nc2ccccc2[nH]1,-9.02%
15,CCOc1ccc(S(=O)(=O)N2CCN(Cc3ccc4c(c3)OCO4)CC2)cc1OCC,9.46%
16,Cn1ncc([N+](=O)[O-])c1C(=O)Nc1ccc(-c2ccccc2)cc1,12.3%
17,CCO[C@@H]1OC(C(=O)NCc2nc3ccccc3[nH]2)=C[C@H](C2CCCCC2)[C@H]1CCCO,11.9%
18,COc1ccc(/C=C2\Oc3cc(OCC(=O)N4CCC[C@H]4CO)ccc3C2=O)c(OC)c1,8.56%
19,Cc1ccoc1C(=O)NCCCNC(=O)c1occc1C,20%
20,Cc1ccc2nc(N/N=C/c3ccco3)cc(C)c2c1,-62.9%
21,Cc1cc(Cl)c(C(=O)Nc2cccc(C(F)(F)F)c2)c(C)n1.Cl,6.71%
22,COc1ccc(S(=O)(=O)Nc2cccc(C)c2C)c2cccnc12,15.2%

row,SMILES,"hERG current change (%, negative = inhibition) at 1uM"
1,CC(NCc1ccc(Cl)c(Cl)c1)C(O)c1ccccc1.Cl (stereo not drawn),6.93%
2,Cc1ccc(-c2csc(NC(=O)C[n+]3cc(-c4ccc(C)cc4)n4c3CCC4)n2)cc1.[Cl-],2.27%
3,O=C(NCC1CCCO1)c1ccc2ccccc2n1 (stereo not drawn),-0.826%
4,COc1ccccc1NC(=O)C1=C(C)Nc2nnnn2C1c1cccc(Br)c1 (stereo not drawn),10.6%
5,CCOC(=O)C1C(c2ccccc2)N(C)OC1(O)C(F)(F)F (stereo not drawn),9.96%
6,CCOC(=O)c1cnn(-c2ccccc2)c1NC(=O)CN1CCCCC1,15.3%
7,Cc1ccc(F)cc1NC(=O)c1cccc2nccnc12,0.276%
8,O=C(c1ccc(F)cc1)C1CCN(Cc2cn[nH]c2-c2ccc(F)cc2)CC1,-78.9%
9,Cc1cccc(CN2CCC(CNC(=O)CSc3cc(=O)n(C)c4cc(Cl)ccc34)CC2)c1,-16.7%
10,COc1ccc(NC(=O)CSc2n[nH]c(N)n2)cc1OC,14.5%
11,COC(=O)N1C(=O)[C@](c2ccccc2)(C(C)C)N1C(=O)OC,13.8%
12,O=C(Nc1ccc(-c2cn3ccccc3n2)cc1)c1ccco1,3.72%
13,O=[N+]([O-])c1ccccc1/C=C/C=N/n1c(-c2ccccc2F)n[nH]c1=S,14.2%
14,COc1cccc(N2C(=O)Nc3ccccc3C2(O)C(=O)NCc2ccc3c(c2)OCO3)c1 (stereo not drawn),-9.36%
15,CCC(=O)N(Cc1ccc2c(c1)OCO2)Cc1cc2cc(OC)ccc2[nH]c1=O,-7.88%
16,CC1CCCCN1CCNc1nc(=S)[nH]c2ccccc12 (stereo not drawn),-46.9%
17,CN(CCCOc1ccccc1Br)Cc1ccccc1,-2.9%
18,C=CCN1N=C(c2ccc(NC(=O)c3ccccc3)cc2)CSC1=O,13.3%
19,Cc1ccc(N(C)C(=O)c2cc(S(=O)(=O)N3CCCC3)cn2C)cc1,11.4%
20,Cc1ccc(-c2nc(N3CCOCC3)s[n+]2-c2ccccc2)cc1.[O-][Cl+3]([O-])([O-])[O-],9.64%
21,CN(C)CCCNc1ncnc2sc(-c3ccccc3)cc12.O=C(O)C(=O)O,-9.73%
22,NC(=O)CN1CCN(Cc2ccc3c(c2)OCO3)CC1,22.5%

row,SMILES,"hERG current change (%, negative = inhibition) at 1uM"
1,CCc1[nH]c(=S)c(C#N)c(-c2ccccc2)c1C(=O)OC,17.6%
2,COC(=O)c1cc(NC(=O)C23CCC(C)(C(=O)O2)C3(C)C)cc(C(=O)OC)c1 (stereo not drawn),9.8%
3,Cc1cccc(C(=O)O/N=C(\N)c2cccc([N+](=O)[O-])c2)c1,3.03%
4,COc1ccc(OC)c(NC(=O)COC(=O)Cc2ccc(Br)cc2)c1,1.61%
5,COCCn1c(SCC(=O)Nc2nnc(C)s2)nnc1-c1ccoc1C,22.9%
6,CC(=O)Nc1ccc2c(c1)ncn2C1CCCCC1,-3.63%
7,CC(C)C1NC2(C(=O)c3ccccc3C2=O)C2C(=O)N(c3ccc(F)cc3)C(=O)C12 (stereo not drawn),-1.42%
8,CCOC(=O)c1c(C(=O)OCC)c(C)n(CCc2ccc(OC)c(OC)c2)c1C,7.1%
9,Cc1ccc(Cl)cc1NC(=S)N1CCCCCC1,11.2%
10,COc1cc(C(=O)N2CCN(C(=O)Cc3ccccc3)CC2)cc(OC)c1OC,-1.15%
11,COc1ccc(Nc2nc(-c3cccs3)nc3ccccc23)c(OC)c1,-2.14%
12,COc1cccc(OC)c1C1=CC(=O)C[C@H](c2ccc3c(c2)OCO3)C1,11%
13,CCC(C(=O)Nc1ccc2c(c1)OCCO2)n1c(=O)[nH]c2ccccc2c1=O (stereo not drawn),12%
14,C/C(=N\O)C1(C)N(O)C(C)(C)C(c2ccc(F)cc2)=[N+]1[O-] (stereo not drawn),13.8%
15,COc1ccc(Nc2nc(-c3cccnc3)nc3ccccc23)cn1,1.82%
16,S=C(NCCN(C1CCCCC1)C1CCCC1)Nc1cccc(Cl)c1,-33.4%
17,C/C(=N\NC(=S)NCCc1ccccc1)c1ccc(O)cc1O,11.4%
18,COc1ccc2c(c1OC)C(=O)O[C@H]2[C@@H]1c2cc3c(cc2CCN1C)OCO3,10.3%
19,COc1ccc(NS(=O)(=O)c2cc(C(=O)Nc3ccccc3C(=O)O)ccc2C)cc1,9.2%
20,CC1(C)CC2CC(C)(CN2S(=O)(=O)c2ccc(F)cc2F)C1 (stereo not drawn),10%
21,CCOC(=O)C(=CNc1ccc(C(F)(F)F)cc1)C(=O)OCC,13.3%
22,CCCN(CCC)CCNC(=O)C1c2ccccc2C(=O)N(CCOC)C1c1ccc(F)cc1 (stereo not drawn),5.06%

row,SMILES,"hERG current change (%, negative = inhibition) at 1uM"
1,Cc1ccc(C(C)(C)NC(=O)C2CCC(=O)N(C3CCCCCC3)C2)cc1 (stereo not drawn),0.0386%
2,Cc1ncc(CO)c2c1Oc1nc(-c3ccccc3)nc(SCC(=O)N3CCCCC3)c1C2,12.9%
3,COc1ccccc1NC(=O)CSc1nnc(Cc2ccccc2)o1,-1.11%
4,CC(=O)c1ccc(NC(=O)CSc2nc3nc(C)cc(C)n3n2)cc1,-0.696%
5,Cc1ccc2oc(=O)c3cnn(CC(=O)N4CCCCC4C)c3c2c1 (stereo not drawn),2.28%
6,COc1ccc(N=C(N(C)C)P(=O)(N(C)C)N(C)C)cc1,-0.0596%
7,COc1ccccc1C(=O)Nc1ccc2c(c1)nc1n2CCSC1,3.31%
8,O=C(NCC(=O)N(Cc1cccs1)C(C(=O)NC1CCCCC1)c1ccncc1)c1ccco1 (stereo not drawn),-0.88%
9,COc1ccc(S(=O)(=O)NCC(=O)Nc2ccc3c(c2)OCCO3)cc1OC,14%
10,COC(=O)N1N=C(c2ccc(Br)cc2)CC1(O)C(F)(F)F (stereo not drawn),6.6%
11,c1ccc(-c2nnc(N3CCOCC3)nc2-c2ccccc2)cc1,4.57%
12,Cc1cc(/C=N/NC(=O)c2ccsc2)c(C)n1-c1cnccn1,23.4%
13,COC(=O)COc1cccc2c(=O)n(CC(=O)NCc3ccccc3)ccc12,8.53%
14,CN(CCNC(=O)c1cc2c(=O)n(C)c3ccccc3c2n1C)Cc1ccccc1,6.05%
15,COCC(=O)Nc1nc(-c2ccccc2)ns1,-8.41%
16,Cc1ccc(S(=O)(=O)/N=C2/NC(=O)/C(=C\c3cc(Br)cc(Br)c3O)S2)cc1,4.92%
17,O=C(Nc1ccccc1Oc1cccnc1)C1CCCN(C/C=C/c2ccccc2)C1 (stereo not drawn),-46.2%
18,COc1ccc(OC)c(NC(=O)Cn2cnc3c(cnn3-c3ccccc3)c2=O)c1,9.32%
19,O=C(Cc1ccccc1)N1CCc2ccccc21,4.09%
20,COc1ccc(OC)c(NC(=O)c2ccc(CSc3ncccn3)cc2)c1,16%
21,COc1ccc(OCC(=O)Nc2cc(-c3nn(C)c(=O)c4ccccc34)ccc2OC)cc1,9.4%
